Literature values in article PMC12209146 (Cellular and Molecular Life Sciences: CMLS, 2025).
No end group written: not given here.

Details: mass spectrometry, Orbitrap Elite System; cited from earlier work
Description: […] . When performing transmission electron microscopy, we observed that Angie 5 disrupted the bacterial cell membranes, contributing to ...

KAINTFIHGNKISIKAI [Angie 1]
Half-life (serum stability): 3.058 min
